# Results as given in PubChem BioAssay (NCI).
# Several values for one entry are separate records, joined by “and”; a condition that tells them apart may be missing. Equal entries are not always repeated.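 Five compound concentrations were applied to cells in 96-well plates for 48 hours; endpoints were derived by simple linear interpolation of the resulting dose-response curve. GI50 = concentration required for 50% inhibition of growth. TGI: total growth inhibition.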
# Test system: NCI-H322M lung
# Experiment: inhibition of tumour cell growth, NCI panel, 48 h
Compound,GI50,TGI
NC(=O)c1ccc2nc(-c3ccc(C4(N)CCC4)cc3)c(-c3ccccc3)n2n1,10.1 µM,31.2 µM
CN(C)Cc1cc(N=Nc2ccccc2Cl)ccc1O,,> 100 µM
COCOc1cc(OC)c(Br)cc1C/C(=N/O)C(=O)OC,,> 100 µM
CC(=O)/C(N=Nc1ccc(-n2c(C)nc3ccc(Br)cc3c2=O)cc1)=C(/C)O,,> 100 µM
CN(C)CCN1C(=O)c2cccc3c(N)ccc(c23)C1=O,14 µM,> 25 µM
O=C1c2ccccc2C(=O)c2c(NC(=O)C(Cl)CCl)cccc21 (stereo not drawn),,41.1 µM
COc1ccc(C(=O)Nc2ccc(S(=O)(=O)NCC(=O)O)cc2)cc1,,> 100 µM
C=CC[N+]1(CCO)CCN=C1CCCCCCCCCCCCC (stereo not drawn),1.7 µM,3.87 µM
COC1=C(C)C(=O)C2=C(C1=O)C(CO)N1C(C#N)C3CC4C(C1C2N1CCOC41)N3C (stereo not drawn),0.024 µM and 0.107 µM,1.76 µM and 1.6 µM and 2.01 µM
Nc1nc(N)c2ncn(-c3ccc(Cl)c(Cl)c3)c2n1,,> 100 µM
CCN(CC)C(=S)SC(=S)N(CC)CC,,> 100 µM
CC(C)(Cl)C(Br)CCC(CBr)=C(Cl)CCl (mixture of isomers),,> 10 µM
CCc1cccc(CC)c1Nc1nc2c(s1)C(=O)c1ccccc1C2=O,,32.5 µM
CCc1nc(-n2c(CC)nc3ccccc3c2=O)nc(N)c1-c1ccc(Cl)cc1,> 44.9 µM,> 100 µM
CCCC(=O)OCC1(CO)C/C(=C/CC(C(C)C)C(C)C)C(=O)O1 (stereo not drawn),,> 100 µM
c1cc2[nH]snc2c2cncc12,,> 100 µM
CNS(=O)(=O)c1ccccc1C(=N)c1ccccc1,,> 100 µM
O=Nc1ccc(O)c2ncccc12,,36.8 µM
